From PubChem BioAssay AID1508642 (National Center for Advancing Translational Sciences (NCATS), 2021)
About 200 (0.47%) of roughly 43,000 compounds were called active. Roughly 12% stayed inconclusive and do not appear here. Calls come from the whole dose curve; as a rule, active = well fitted cell-killing curve with a large enough effect; inconclusive = small, poorly fitted or top-dose-only effect, or effect the other way; inactive = flat fitted curve, though single readings scatter. The list shows a part of the results.

Test: Cell viability qHTS assay in S16 Pmp22-F2sN cells; note: nearly all actives have a fitted effect of over 65% in size
Conditions: S16 Pmp22-F2sN Schwann cells (luciferase reporters placed in the Pmp22 gene) viability, CellTiter-Glo, 24 h; series mostly up to 57.5 µM; activity change, negative = cytotoxicity: at the top concentration
How it was run: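 S16 Schwann cells carrying the Pmp22-F2sN reporter, seeded in 1536-well format, were exposed to library compounds for 24 h at 37C. Viability was read as CellTiter-Glo luminescence after 15 min at room temperature.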
% is set by controls: 0 for no effect and ±100 for the full control effect.

Compound	activity change, negative = cytotoxicity
COc1ccc(-c2nn(-c3ccc(F)cc3F)c3c2cnc2ccc(F)cc23)cc1	inactive: 7.91%
CC(NC(=O)c1cc2sccc2n1Cc1ccc(F)cc1)c1ccccc1 (configuration not stated)	inactive: 12.9%
COc1ccc(C(=O)Nc2ccc(-c3cc(C(F)(F)F)nn3-c3ccccc3)cc2)cc1OC	inactive: -12.9%
Cc1ccc(-n2c(=O)c3ccccc3n(CC(=O)Nc3cccc(C(F)(F)F)c3)c2=O)cc1	inactive: -17.9%
O=C(c1ccccc1)N1CCCCC1CCN1CCCCC1 (configuration not stated)	inactive: 16.3%
O=C(Nc1ccc2nc(SCC(=O)N3CCOCC3)sc2c1)c1ccc(Cl)cc1	inactive: -3.89%
CCN(Cc1ccccc1)C(=O)C(CC(C)C)NS(=O)(=O)c1ccc2c(c1)CCN2C(C)=O (configuration not stated)	inactive: -4.21%
COc1cccc(N2CCN(c3ncnc4onc(-c5ccc(Cl)cc5)c34)CC2)c1	inactive: 6.51%
N#C/C(=C\c1ccc(Cl)cc1)c1nc(-c2cc3c(ccc4ccccc43)oc2=O)cs1	inactive: 20.1%
O=C(Cn1c(=O)n(-c2ccccc2)c(=O)c2sc3ccccc3c21)NC1CCCC1	inactive: 4.94%
CN(C)c1ccc(CNC(=O)c2sc3ncccc3c2-n2cccc2)cc1	inactive: -0.609%
Cc1cc(C)cc(NC(=O)CCN2C(=O)c3ccccc3Sc3ncccc32)c1	inactive: 4.02%
CSc1ccc(CNC(=O)Cn2ccc3cc(S(=O)(=O)N4CCCC4)ccc32)cc1	inactive: -1.79%
COc1ccccc1CNC(=O)CS(=O)(=O)Cc1nc(-c2ccccc2C)oc1C	inactive: 25.6%
CN(C)c1ccc(C(=O)NCc2ccc3c(c2)CCN3C(=O)c2ccccc2)cc1	inactive: -27.7%
CC(C)CCNC(=O)CSc1nc2ccccc2nc1Cc1ccc(Cl)cc1	inactive: 8.3%
COCCn1c(C)cc(O)c(C(c2ccc(Cl)cc2)N2CCCCC2)c1=O (configuration not stated)	inactive: 3.88%
Cc1cc(C)c(NC(=O)CN2C(=O)CCSc3ccc(S(=O)(=O)N4CCCC4)cc32)c(C)c1	inactive: 1.08%
COc1cccc(CNC(=O)CN2C(=O)CSc3ccc(S(=O)(=O)N4CCCC4)cc32)c1	inactive: -1.68%
COc1ccc(C2C(=O)N(C3CCCCC3)CC(=O)N2C2CCCCC2)cc1 (configuration not stated)	inactive: 10.6%
Cc1ccc(-c2cc(C(F)(F)F)c(C#N)c(SCC(=O)Nc3ccccc3F)n2)cc1	inactive: -8.21%
CCN(c1ncnc2c1cnn2-c1cccc(Cl)c1)C1CCCCC1	inactive: 15.8%
O=C(Nc1ccc2nc(SCC(=O)N3CCOCC3)sc2c1)c1ccccc1Cl	inactive: -1.37%
Cc1cccc(OCC(=O)Nc2ccccc2OCc2cc(=O)n3cc(C)ccc3n2)c1	inactive: 6.27%

Compound	activity change, negative = cytotoxicity
CCn1ccc2cc(S(=O)(=O)N3CCC(C(=O)NCc4ccc(F)cc4)CC3)ccc21	inactive: 11%
Cc1ccc(NCc2cccn2-c2nnc(N3CCC(C(=O)NCc4ccc(F)cc4)CC3)s2)cc1	inactive: -24.2%
Cc1ccn2c(Nc3ccccc3C)c(-c3ccccc3)nc2c1	inactive: -12.7%
COc1cccc(NC(=O)Cn2c(=O)n(Cc3ccco3)c(=O)c3cc(OC)c(OC)cc32)c1	inactive: 13.5%
O=C(Cn1c(=O)n2nc(-c3cccc(F)c3)nc2c2ccccc21)NCc1ccc(Cl)cc1	inactive: 0.956%
Cc1ccccc1NC(=O)c1c(NC(=O)c2cccs2)sc2c1CCC(C)C2 (configuration not stated)	inactive: -1.7%
O=C(Nc1ccc2nn(-c3ccc(Cl)cc3)nc2c1)c1cc2ccccc2o1	inactive: -2%
N#Cc1nc(/C=C/c2ccc(F)cc2)oc1NC1CCCCC1	inactive: 5.3%
CCc1cccc(C)c1NS(=O)(=O)c1ccc(-c2cc(C)no2)s1	inactive: -3.43%
Cc1cccc(NC(=O)c2c(N)sc3c2CCC(C)C3)c1 (configuration not stated)	inactive: 4.57%
CCOC(=O)c1cc(-c2ccccc2)n(CCC(=O)NCCc2ccc(OC)c(OC)c2)c1C	inactive: -11.7%
COc1ccc(-c2nc3cc(NC(=O)c4cc5ccccc5o4)ccc3o2)cc1	inactive: 4.02%
COc1ccc(N(C)C(=O)C2CCN(S(=O)(=O)c3cc(Br)cc4c3N(C(C)=O)CC4)CC2)cc1	inactive: -15.5%
Cc1ccc(OCc2cc(=O)n3ccsc3n2)c(NC(=O)c2ccco2)c1	inactive: -0.252%
CCOc1ccc(NC(=O)CC2C(=O)N(c3ccc(C)cc3)C(=O)N2Cc2ccc(OC)cc2)cc1 (configuration not stated)	inactive: -5.53%
COc1ccc(OC)c(NC(=O)N(C)CCc2c(C)nn(C)c2C)c1	inactive: -3.16%
CCC(=O)N1CCc2cc(Br)cc(S(=O)(=O)N(CC)Cc3ccccc3)c21	inactive: 18.9%
CCOc1ccc(NC(=O)c2c(NC(=O)c3ccccc3Br)sc3c2CCC(C)C3)cc1 (configuration not stated)	inactive: 7.44%
CCCCN(C)S(=O)(=O)c1cc(-c2cc(C)no2)ccc1C	inactive: -10.4%
CCOc1ccc(S(=O)(=O)NCC(c2ccc(N(C)C)cc2)N2CCc3ccccc32)cc1 (configuration not stated)	inactive: 6.24%
Cc1cc(-c2nc3ncccc3o2)ccc1NC(=O)c1ccc(Cl)cc1	inactive: 0.337%
COC(=O)CSc1ccc2nnc(CCNS(=O)(=O)c3ccccc3)n2n1	inactive: -2.27%
CCc1cccc(C)c1NC(=O)c1cn2c3c(ccc(Cl)c3c1=O)OC(C)C2 (configuration not stated)	inactive: -5.05%
